For 172 sequences, binding signal results are on record in PMC10668032.

The other results are listed elsewhere or left out. At the low end of the ranking, values are background and their order means little.

The target of this experiment is SIX1 homeodomain (reference allele) (UniProt Q15475). The experiment in a line: universal protein binding microarray. Conditions: Universal all-10-mer PBM (8x60K, AMADID 030236), 300 nM GST-tagged protein, Alexa Fluor 488 anti-GST; buffer, salt, pH and temperature not stated; high values mean tight binding; most listed sequences are background and not binding sites; double strand, one strand shown.
Take ATAGTTTC: the binding signal stood at 0.0852 E-score.
As for CTGTTAAG, the binding signal is -0.288 E-score.
As to CCCCTGAA, the binding signal worked out at 0.0737 E-score.
As to CTTGGATC, the binding signal was determined as 0.295 E-score.
For the sequence AATGCGGA, the binding signal was -0.00414 E-score.
Take GCTTTACA: the binding signal is -0.154 E-score.
Regarding CACGTCTC, the binding signal was found to be 0.0977 E-score.
In the case of CTTCGTAA, the binding signal is -0.249 E-score.
As for AATTCTGA, the binding signal was -0.0645 E-score.
On to CCTACTCA, for which the binding signal is 0.161 E-score.
On to GAGAGCCA, for which the binding signal is -0.0782 E-score.
For AAGCGTAC the value was -0.124 E-score; for AATAACCG, -0.192 E-score; for ATGTTTTG, -0.132 E-score.
Regarding AACTTGTC, the binding signal was -0.288 E-score.
As for CTCTCTAA, the binding signal is -0.163 E-score.
The value for GGATGTAA was 0.134 E-score; that for AGGGCGTC was 0.0124 E-score; that for CACATGCC was -0.108 E-score.
Take CAGCGATG: the binding signal is 0.0336 E-score.
Turning to AATAGTGT, the binding signal was found to be 0.167 E-score.
Turning to ACTCTAGG, the binding signal was -0.14 E-score.
For the sequence AGCAAACT, the binding signal was -0.132 E-score.
Regarding AACACGGA, the binding signal came out at 0.136 E-score.
Turning to GATTTCTA, the binding signal was 0.0508 E-score.
Consider CATGCTCA, for which the binding signal was -0.0777 E-score.
For CGACGGGC the value was -0.12 E-score; for CAGCATTC, -0.0843 E-score.
The value for CGACTACA was -0.0719 E-score.
The value for ATCTCGAC was 0.0336 E-score.
As to CCGGACCG, the binding signal was -0.0242 E-score.
Consider CGTGGACC, for which the binding signal was -0.258 E-score.
Take AACCCGCC: the binding signal is -0.0543 E-score.
For the sequence GGGCTTAC, the binding signal is -0.0473 E-score.
For GGTGTCTA, the binding signal worked out at 0.35 E-score.
As to ACCGCGGT, the binding signal came out at 0.0875 E-score.
On to ATTCTGCC, for which the binding signal was -0.0369 E-score.
The value for CCAATCGC was -0.103 E-score; that for AAGCTACA was -0.116 E-score.
For GCGCATTA, the binding signal came to 0.0805 E-score.
For ATACGAGG the value was 0.232 E-score; for AAAGCTAC, -0.101 E-score; for GAAAATAA, -0.151 E-score.
As to AAAAACAC, the binding signal was -0.0623 E-score.
On to CCAAGTTA, for which the binding signal is -0.101 E-score.
As to AAGTCCCT, the binding signal was -0.156 E-score.
Turning to CTCCTTAA, the binding signal was -0.0897 E-score.
With GAGCCCTA, the binding signal is -0.0819 E-score.
In the case of ACCAAGCA, the binding signal is -0.0892 E-score.
As for CAGGAACA, the binding signal stood at 0.00716 E-score.
Take GAAGACAC: the binding signal turned out to be 0.21 E-score.
Regarding ATATTGTC, the binding signal came to 0.105 E-score.
For the sequence AAGCCTTG, the binding signal is -0.201 E-score.
In the case of ATGGAAAT, the binding signal is -0.161 E-score.
For the sequence ACCAACCA, the binding signal amounted to 0.0713 E-score.
Turning to CTCCCTAC, the binding signal worked out at 0.0275 E-score.
For ACGTTGCT, the binding signal is -0.219 E-score.
For AGCGCTGC the value was -0.333 E-score.
Take CCTATAAA: the binding signal is -0.0902 E-score.
Regarding GAAGCAAA, the binding signal is -0.266 E-score.
On to CGACAAAA, for which the binding signal was -0.187 E-score.
Consider CATACCCA, for which the binding signal worked out at 0.208 E-score.
In the case of ACGATTGG, the binding signal came to 0.0859 E-score.
For the sequence AGGAAGTC, the binding signal was -0.342 E-score.
As for AAGCGTCG, the binding signal is -0.256 E-score.
On to GATTGAAA, for which the binding signal was -0.1 E-score.
For AGGGGCAC, the binding signal is -0.0269 E-score.
For the sequence AGTGATCA, the binding signal was 0.313 E-score.
For ACCCTCCC the value was 0.0969 E-score; for CCTCAGTA, 0.0464 E-score.
For the sequence TTAGCTAA, the binding signal was found to be 0.0337 E-score.
For CCTGATCC, the binding signal stood at 0.387 E-score.
For ATTGATCA the value was 0.123 E-score; for CTAGGCAA, -0.176 E-score.
For the sequence GATGGGTA, the binding signal is 0.223 E-score.
As for CACAAGAA, the binding signal was -0.184 E-score.
For the sequence GGCACGCC, the binding signal is -0.172 E-score.
AGTGGTAT: the binding signal amounted to 0.35 E-score.
Take AATGAATC: the binding signal was found to be 0.0336 E-score.
In the case of TCACTAAA, the binding signal turned out to be 0.0184 E-score.
On to TACAAGTA, for which the binding signal came out at 0.162 E-score.
Regarding ACCGCTAC, the binding signal is -0.0951 E-score.
For CCGCGCCA, the binding signal is -0.174 E-score.
For the sequence GACACGGA, the binding signal was found to be 0.196 E-score.
With AATATGAA, the binding signal stood at 0.0344 E-score.
For CTGATGTA the value was -0.0219 E-score; for CCGCTTAA, -0.0125 E-score; for TAAAACCA, 0.0113 E-score.
Turning to AGAGTACG, the binding signal is -0.118 E-score.
Turning to GCATAAAC, the binding signal was -0.0342 E-score.
With AGTAAATA, the binding signal is 0.0217 E-score.
As for CGTGCTAA, the binding signal was -0.238 E-score.
For CCTATTAA the value was 0.00619 E-score; for AGCAAGAG, -0.123 E-score; for CGTAGATC, 0.0922 E-score.
Turning to ACGAGTGA, the binding signal was -0.00425 E-score.
Take GGTAGACA: the binding signal turned out to be 0.133 E-score.
The value for AGATAGCG was 0.0754 E-score.
Turning to CACCACTA, the binding signal came to 0.165 E-score.
Turning to AAAAGTGG, the binding signal was -0.0847 E-score.
AGTCCCTC: the binding signal was -0.231 E-score.
AACCCAGC: the binding signal was -0.0253 E-score.
Regarding CGGGGCAA, the binding signal was found to be 0.104 E-score.
Consider AAACGATA, for which the binding signal stood at 0.328 E-score.
For CATTCAAG, the binding signal was -0.0736 E-score.
For GTGAGTGA the value was 0.00877 E-score; for AACAAACT, -0.237 E-score.
For GCGGGCAA, the binding signal is -0.128 E-score.
For GGCCGACC, the binding signal is -0.0654 E-score.
Regarding CCACCACG, the binding signal is -0.0152 E-score.
Take AGCTTACG: the binding signal was -0.00665 E-score.
Turning to CGATCAGA, the binding signal worked out at 0.192 E-score.
For GCTTTAGA the value was -0.0964 E-score.
Consider GGGTACAA, for which the binding signal was 0.00918 E-score.
For CATAAGAC, the binding signal is -0.0925 E-score.
Regarding GATCGATC, the binding signal was found to be 0.362 E-score.
Regarding CAAGGGTC, the binding signal is -0.218 E-score.
On to AATTCAGG, for which the binding signal turned out to be 0.0244 E-score.
As to CTAGTTAC, the binding signal is -0.166 E-score.
For AAAGCTTG the value was -0.226 E-score; for TTAAGAAA, -0.237 E-score; for ATCAGCTC, 0.283 E-score.
As to AGCTTATG, the binding signal was -0.097 E-score.
As for AGTGAGGC, the binding signal was -0.0151 E-score.
For the sequence GAATATAC, the binding signal was 0.0608 E-score.
Take CCCGACAG: the binding signal turned out to be 0.013 E-score.
For TGGGAAAA the value was -0.181 E-score; for AGATCCTG, 0.252 E-score; for AAGACAGA, -0.099 E-score.
For CATATACG the value was 0.24 E-score.
On to CCGACTCG, for which the binding signal was determined as 0.0999 E-score.
ACTCCTAT: the binding signal was determined as 0.0782 E-score.
For CAATACCC, the binding signal stood at 0.387 E-score.
The value for CTCAACGA was 0.0195 E-score; that for CGCACACG was -0.0156 E-score.
For the sequence CATTCTCA, the binding signal was determined as 0.0592 E-score.
As to GAGGAACA, the binding signal was -0.0362 E-score.
Take CGAGGACC: the binding signal was -0.146 E-score.
As for CTATCTTA, the binding signal was -0.0436 E-score.
In the case of ACGCTAAA, the binding signal was -0.0647 E-score.
On to CGTCAAGA, for which the binding signal is -0.164 E-score.
TCCTAGCA: the binding signal is -0.151 E-score.
The value for CTCATCAG was 0.105 E-score; that for AACGCGCG was -0.113 E-score.
Consider CGAGACCG, for which the binding signal was 0.136 E-score.
Take GAACTAAA: the binding signal was -0.0021 E-score.
Take GATAGCCC: the binding signal amounted to 0.303 E-score.
In the case of ACCGACGC, the binding signal was -0.153 E-score.
Take CAATCGTG: the binding signal is -0.107 E-score.
Take CGCAAGCA: the binding signal is -0.0606 E-score.
For the sequence CCCTAAAA, the binding signal is 0.0382 E-score.
Regarding AAACTGCC, the binding signal is -0.0526 E-score.
Consider CGGGTAAA, for which the binding signal worked out at 0.0352 E-score.
GAAGCTTA: the binding signal is -0.0523 E-score.
For ATAGACGG, the binding signal worked out at 0.0881 E-score.
For CAGAAACG, the binding signal is -0.137 E-score.
For the sequence CGCGACGA, the binding signal was -0.0396 E-score.
The value for GATACTGA was 0.423 E-score; that for ACCGGAGC was -0.0324 E-score; that for CCACCGCC was -0.162 E-score.
Regarding CTAACATA, the binding signal was determined as 0.108 E-score.
The value for AACCGCGC was -0.205 E-score; that for TCTCAGCA was 0.0634 E-score; that for GGAGTTCA was -0.184 E-score.
Regarding GGAATGAA, the binding signal is -0.115 E-score.
On to CTTTGCGC, for which the binding signal was -0.284 E-score.
In the case of AGAACACA, the binding signal was -0.146 E-score.
Turning to ATCCCCAG, the binding signal came out at 0.239 E-score.
As for AATTCGCT, the binding signal was -0.137 E-score.
The value for TCCGCTCA was -0.0747 E-score; that for GCGTTTTA was -0.0508 E-score; that for GACAACGC was -0.302 E-score.
